Source: PubChem BioAssay AID2675 (National Center for Advancing Translational Sciences (NCATS), 2010)
Hit rate of the full screen: of about 280,000 compounds, about 100 (0.036%) were called active. Inconclusive results, whose numbers are uncertain, are shown with a selection of clear calls. The call rests on the fitted dose curve; in most records, active means well fitted inhibition curve with a large enough effect in the signal ratio, with a control signal flat (not every such curve was filed as active); inconclusive means small, poorly fitted or top-dose-only effect, or effect the other way, or a change in a side signal; inactive means no such curve, though single readings can be large or run the other way; the % refers to the signal ratio. Potencies of inconclusive entries are doubtful fits and often do not repeat. “Side channel” marks fits to a control or component signal instead of the main read-out. Residues, ends and D or L forms follow the SMILES beside them. *: point of attachment. Boc = CC(C)(C)OC(=O)*
Potency means the concentration at half of the fitted maximal effect; tags describe the fitted curve by direction and shape or compound fluorescence and quenching.

What follows are compounds tested against Muscleblind-like protein 1 (Homo sapiens) (UniProt Q9NR56) (assay: qHTS Assay for Inhibitors of MBNL1-poly(CUG) RNA binding). Conditions: TR-FRET MBNL1-His/biotin-(CUG)12 binding, 665/545 ratio; series mostly up to 57.5 µM.
Sequence of UniProt Q9NR56 (Q9NR56 whole entry, looked up): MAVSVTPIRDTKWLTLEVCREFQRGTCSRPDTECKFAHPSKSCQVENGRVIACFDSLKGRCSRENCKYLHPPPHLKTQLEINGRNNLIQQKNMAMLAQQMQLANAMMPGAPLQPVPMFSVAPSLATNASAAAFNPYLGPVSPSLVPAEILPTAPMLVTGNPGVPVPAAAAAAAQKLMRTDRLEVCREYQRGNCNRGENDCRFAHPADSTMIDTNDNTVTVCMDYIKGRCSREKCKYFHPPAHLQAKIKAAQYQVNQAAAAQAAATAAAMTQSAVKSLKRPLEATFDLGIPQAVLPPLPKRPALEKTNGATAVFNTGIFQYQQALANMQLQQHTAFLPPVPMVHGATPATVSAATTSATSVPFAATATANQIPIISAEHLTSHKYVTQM
Procedure, shortened: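 MBNL1-His + Biotin-(CUG)12, cpd titration 92 nM–58 uM; Tb anti-His Ab 0.055 ng/ul, SA-XL665 5 nM (final); 60 min RT; ratiometric 665/545 nm, Ex 340 nm; normalized to buffer and full-complex controls.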
In the case of COc1ccc(C2/C(=C(\O)c3ccc4c(c3)OCCO4)C(=O)C(=O)N2Cc2cccnc2)cc1OC (configuration not stated), the Potency is reported as inconclusive: 25.1 µM [quencher, side channel, partial curve]. With Cc1ccc(S(=O)(=O)N2CCC(C(=O)N[C@H](C(=O)NC3CCS(=O)(=O)C3)C(C)C)CC2)cc1 (some centres not stated) the Potency was inconclusive: 39.8 µM [quencher, side channel, single point]. In the case of NC(=O)c1ccc(SCC(=O)NC2CCCCC2)c([N+](=O)[O-])c1, the Potency is reported as inconclusive: 14.1 µM [quencher, side channel, partial curve]. CCOC(=O)C1CCN(c2ccc([N+](=O)[O-])cc2S(=O)(=O)N2CCOCC2)CC1 was tested, and the Potency was inconclusive: 7.94 µM [quencher, side channel, partial curve]. For Cc1ccc(OCC(=O)Nc2ccc(F)cc2)c([N+](=O)[O-])n1, the Potency was inconclusive: 14.1 µM [quencher, side channel, partial curve]. With COc1ccc(CN2C(=O)c3cccnc3C2Nc2ccc(OC)c(Cl)c2)cc1 (configuration not stated) the Potency was “inactive”. In the case of O=C(O)Cc1sc(Nc2cccc3ccccc23)nc1-c1ccc(F)cc1, the Potency is reported as inconclusive: 39.8 µM [quencher, side channel, single point]. With Cc1nc2nc[nH]n2c(=O)c1CCC(C)C the Potency was inconclusive: 3.16 µM [fluorescent, side channel, partial curve]. For CC(C)[C@H](NC(=O)c1ccccc1Cl)C(=O)OCc1cc(=O)n2cc(Br)ccc2n1, the Potency was inconclusive: 15.8 µM [quencher, side channel, partial curve]. O=C(N/N=C\c1ccc(Cl)s1)c1cccs1 was tested, and the Potency was inconclusive: 22.4 µM [quencher, side channel, single point]. For CCOC(=O)CSc1ncc(-c2ccccc2)nn1, the Potency was inconclusive: 20 µM [quencher, single point]. CC(C)(C)OC(=O)N1CCCC1C(=O)NC(Cc1ccccc1)C(=O)O (stereo not drawn) (Boc-Pro-Phe-OH; configuration not given here) was tested, and the Potency was inconclusive: 39.8 µM [inhibitor, single point]. For O=C(CCN1C(=O)c2ccc([N+](=O)[O-])cc2C1=O)Nc1ccccc1C(=O)O, the Potency was inconclusive: 15.8 µM [quencher, side channel, partial curve]. In the case of CCCCOc1ccc(C(=O)N(C)CC(=O)Nc2ccc(C)cc2)cc1, the Potency is reported as “inactive”. Cc1cccn2c(=O)c3cc(C(=O)NCCc4ccccc4)c(=N)n(CCCn4ccnc4)c3nc12 was tested, and the Potency was inconclusive: 14.1 µM [quencher, partial curve, poor fit]. With CCCC[n+]1ccn(-c2nc3ccccc3nc2[N-]S(=O)(=O)c2ccc(C)cc2)c1 the Potency was inconclusive: 17.8 µM [quencher, side channel, partial curve]. In the case of O=C1c2cccc3c(O)ccc(c23)C(=O)N1Cc1ccccc1, the Potency is reported as “inactive”. CCCCOc1ccc(C2OC34CCCCC3C(C#N)(C#N)C2(C#N)C(=N)O4)cc1 (configuration not stated) was tested, and the Potency was inconclusive: 28.2 µM [quencher, side channel, single point]. Cc1ccccc1-c1cnn(-c2cccc([N+](=O)[O-])c2)c1N was tested, and the Potency was inconclusive: 10 µM [quencher, side channel, partial curve]. With CCOc1cc(C2C(C#N)=C(N)OC3=C2C(=O)CC(C)(C)C3)cc([N+](=O)[O-])c1O (configuration not stated) the Potency was inconclusive: 10 µM [quencher, side channel, partial curve]. With Cc1ccnc(N2C(=O)c3cccc4c([N+](=O)[O-])ccc(c34)C2=O)c1 the Potency was inconclusive: 3.16 µM [quencher, side channel, full curve]. In the case of CCN(Cc1ccccc1)C(=O)/C=C/c1ccccc1[N+](=O)[O-], the Potency is reported as inconclusive: 22.4 µM [quencher, side channel, partial curve]. With Cc1[nH]c2ccccc2c1C(=O)CNc1nccs1 the Potency was “inactive”. In the case of S=C(Nc1ccc(OCc2ccccc2)cc1)Nc1cccc(Cl)c1Cl, the Potency is reported as inconclusive: 0.355 µM [fluorescent, side channel, full curve]. With Cc1ccc(S(=O)(=O)N(CC(=O)NC2CC2)c2ccc(C)c(Cl)c2)cc1 the Potency was “inactive”. O=C(Nc1ccc(F)cc1)c1nn(-c2ccccc2)c(=O)cc1Cl was tested, and the Potency was inconclusive: 20 µM [quencher, side channel, partial curve]. In the case of CN1CCC(OC(=O)c2cc3cc(Br)ccc3oc2=O)CC1, the Potency is reported as inconclusive: 2 µM [quencher, side channel, full curve]. With Cc1ccc(C(=O)NC(=S)Nc2ccc(CN3CCCCC3)cc2)c(C)c1 the Potency was “inactive”. In the case of O=[N+]([O-])c1ccc(Sc2n[nH]c(-c3ccco3)n2)nc1, the Potency is reported as inconclusive: 14.1 µM [quencher, partial curve]. CC(Cc1ccccc1)C(=O)N(C)Cc1cccnc1 (configuration not stated) was tested, and the Potency was inconclusive: 63.1 µM [inhibitor, single point]. With N#C/C(=C(/O)c1ccc([N+](=O)[O-])o1)c1nc2ccccc2[nH]1 the Potency was inconclusive: 0.708 µM [quencher, side channel, full curve, poor fit]. In the case of CNC(=O)CSc1nnc(-c2ccco2)n1-c1cc(C)ccc1C, the Potency is reported as “inactive”. With COc1ccc(NC(=O)C2=CC(c3ccc(OC)c(OC)c3)=NS(=O)(=O)N2C)cc1 the Potency was inconclusive: 15.8 µM [quencher, side channel, partial curve]. In the case of O=C1C2C(C(=O)N1/N=C/c1ccc(N3CCCCC3)o1)C1C=CC2C12CC2 (configuration not stated), the Potency is reported as inconclusive: 39.8 µM [quencher, side channel, partial curve]. In the case of COc1ccc(-n2c(CN3CCN(c4ccc(F)cc4)CC3)nc3ccc([N+](=O)[O-])cc3c2=O)c(OC)c1, the Potency is reported as inconclusive: 3.55 µM [quencher, side channel, full curve]. With Cc1ccc2cc3c(NC(=O)C(C)C)nn(C)c3nc2c1 the Potency was inconclusive: 17.8 µM [quencher, partial curve]. For Cc1n[nH]c(C)c1N1C(=O)c2cccc3c(Br)ccc(c23)C1=O, the Potency was inconclusive: 28.2 µM [activator, partial curve]. Cc1ccc(NS(=O)(=O)c2cc([N+](=O)[O-])ccc2NNC(=S)Nc2cccc(Cl)c2)c(C)c1 was tested, and the Potency was “inactive”. C/C(CC(=O)Nc1ccc([N+](=O)[O-])cc1)=N\NC(=O)c1ccccc1[N+](=O)[O-] was tested, and the Potency was inconclusive: 31.6 µM [quencher, side channel, partial curve]. CCOCC(=O)Nc1ncc(S(=O)(=O)c2ccc([N+](=O)[O-])cc2)s1 was tested, and the Potency was inconclusive: 14.1 µM [quencher, side channel, partial curve]. For COc1ccc(Cc2nnc(SCC(=O)c3cccc([N+](=O)[O-])c3)n2C)cc1, the Potency was inconclusive: 12.6 µM [quencher, side channel, partial curve]. COc1ccc([N+](=O)[O-])cc1NC(=O)CCN1CCN(CCO)CC1 was tested, and the Potency was inconclusive: 25.1 µM [quencher, single point]. In the case of COc1ccc(-c2ccnc3nc(N4CCN(c5ccccc5)CC4)nn23)cc1, the Potency is reported as “inactive”. CCCCCCC(C)n1[nH]c(=O)c2c(C)cc(=O)[nH]c21 (configuration not stated) was tested, and the Potency was “inactive”. Cc1ccc(N(Cc2cc3ccccc3[nH]c2=O)S(C)(=O)=O)cc1 was tested, and the Potency was inconclusive: 35.5 µM [fluorescent, side channel, single point]. In the case of CCOc1ccc(-n2c(SCC(=O)NCc3ccco3)nc3c(c2=O)SCC3)cc1, the Potency is reported as inconclusive: 12.6 µM [quencher, side channel, partial curve]. With O=C(COc1ncnc2cc([N+](=O)[O-])ccc12)NCc1ccc2c(c1)OCO2 the Potency was inconclusive: 15.8 µM [quencher, side channel, partial curve]. For CCNC(=O)/C=C/c1ccccc1[N+](=O)[O-], the Potency was inconclusive: 15.8 µM [quencher, side channel, partial curve]. In the case of CC(=O)N1CCCC(C(=O)c2ccc3c4c(cccc24)CC3)C1 (configuration not stated), the Potency is reported as inconclusive: 20 µM [quencher, side channel, partial curve]. For CCOC(=O)c1c(/N=C/c2ccccc2O)sc2c1CCC2, the Potency was “inactive”. In the case of Cc1nc(C(=O)Nc2ccc(F)cc2)nn1-c1ccc([N+](=O)[O-])cc1, the Potency is reported as inconclusive: 0.158 µM [quencher, side channel, full curve, poor fit]. For COc1ccc(CC(NC(C)=O)C(=O)N2CCN(C(=O)Nc3cccc(Cl)c3)CC2)cc1OC (configuration not stated), the Potency was inconclusive: 1.58 µM [quencher, side channel, partial curve]. With COc1ccc(C[C@H]2CN3C(=NC[C@H]3C)N2CCNC(=O)c2ccc(C)c(Br)c2)cc1 the Potency was inconclusive: 63.1 µM [inhibitor, single point]. For COCCOc1cnn(-c2cc(Oc3ccc(C)cc3)ncn2)c(=O)c1Cl, the Potency was inconclusive: 15.8 µM [quencher, side channel, partial curve]. With COC(CNC(=S)Nc1ccc([N+](=O)[O-])cc1)OC the Potency was inconclusive: 10 µM [quencher, partial curve]. With CN1C(=O)c2ccc(S(=O)(=O)c3ccc(C(=O)O)cc3)cc2C1=O the Potency was inconclusive: 28.2 µM [quencher, side channel, partial curve]. For CCNC(=S)Nc1cccc([N+](=O)[O-])c1, the Potency was inconclusive: 31.6 µM [quencher, side channel, partial curve].
